# Measured values published in PMC4336329 (PLoS ONE, 2015).
# The whole screen tested about 310,000 compounds, of which about 14,000 (4.5%) showed an effect of 50% or more. Effects have a minus sign here. Some of the results follow. Where a SMILES comes first, the peptide text is derived from it. The star is where a group is joined. Tos = Cc1ccc(S(=O)(=O)*)cc1
# Biological target: human ether-à-go-go-related gene (hERG) potassium channel (human, UniProt Q12809)
# Experiment: primary screen, population patch clamp on CHO cells stably expressing hERG
# 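Also: peak tail current of the secondary pulse compared with the same well before compound.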
# Chain of human ether-à-go-go-related gene (hERG) potassium channel (Q12809 whole entry, looked up): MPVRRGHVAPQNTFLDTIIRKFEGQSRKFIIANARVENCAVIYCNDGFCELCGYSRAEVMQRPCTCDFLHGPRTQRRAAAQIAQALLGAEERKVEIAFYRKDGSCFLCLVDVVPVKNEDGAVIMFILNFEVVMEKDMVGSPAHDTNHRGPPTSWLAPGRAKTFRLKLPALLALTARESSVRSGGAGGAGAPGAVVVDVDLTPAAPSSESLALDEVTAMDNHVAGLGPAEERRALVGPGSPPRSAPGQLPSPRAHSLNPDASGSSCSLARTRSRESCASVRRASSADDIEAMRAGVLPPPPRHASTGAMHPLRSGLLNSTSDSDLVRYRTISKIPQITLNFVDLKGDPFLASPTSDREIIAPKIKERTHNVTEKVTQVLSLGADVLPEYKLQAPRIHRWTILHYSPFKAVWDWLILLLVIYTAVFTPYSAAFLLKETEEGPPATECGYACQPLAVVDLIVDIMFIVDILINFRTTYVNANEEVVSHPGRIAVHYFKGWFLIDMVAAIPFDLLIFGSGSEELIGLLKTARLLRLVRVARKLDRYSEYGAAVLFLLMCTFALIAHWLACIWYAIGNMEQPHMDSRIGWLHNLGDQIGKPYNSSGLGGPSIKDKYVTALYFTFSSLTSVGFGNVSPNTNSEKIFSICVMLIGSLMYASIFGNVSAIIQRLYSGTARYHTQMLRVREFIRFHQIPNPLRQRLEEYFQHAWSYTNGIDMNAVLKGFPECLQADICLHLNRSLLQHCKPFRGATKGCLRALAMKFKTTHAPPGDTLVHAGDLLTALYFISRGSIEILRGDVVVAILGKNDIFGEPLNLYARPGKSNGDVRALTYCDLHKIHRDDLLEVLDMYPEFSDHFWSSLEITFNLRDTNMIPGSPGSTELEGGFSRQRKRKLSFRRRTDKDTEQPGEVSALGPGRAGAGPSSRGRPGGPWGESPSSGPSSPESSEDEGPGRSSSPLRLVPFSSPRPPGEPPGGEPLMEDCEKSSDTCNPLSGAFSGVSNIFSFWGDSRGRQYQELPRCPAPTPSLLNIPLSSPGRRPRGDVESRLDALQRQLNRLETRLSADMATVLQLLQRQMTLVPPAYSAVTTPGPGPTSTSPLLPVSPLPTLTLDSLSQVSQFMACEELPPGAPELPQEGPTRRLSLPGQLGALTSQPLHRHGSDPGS
row,SMILES,"hERG current change (%, negative = inhibition) at 10uM [%]"
1,Cc1c(-c2cccc(Cl)c2)nc2ccccc2c1C(=O)OC/C(O)=C(\C#N)c1nc2ccccc2[nH]1,6.73
2,O=C(Nc1nccs1)C(Cl)(Cl)Cl,28.3
3,O=C(c1ccccc1)C1C(=O)c2ccccc2C1=O,10.1
4,CCOC(=O)C1(Cc2cccc(Cl)c2)CCCN(C(=O)c2cn[nH]c2)C1 (stereo not drawn),-8.81
5,O=C(CSc1nnnn1-c1ccccc1)N1N=CCC1c1ccccc1 (stereo not drawn),-17.6
6,COC(=O)c1sc(-c2ccc(Cl)cc2)cc1NC(=O)COCC(=O)O,16.6
7,Cc1cc(=O)oc2cc(OC(C)C(=O)Nc3ccc(C(N)=O)cc3)ccc12 (stereo not drawn),5
8,COC(=O)Cc1csc(N)[nH+]1.[Cl-],21.1
9,CCn1c(CNC(=O)c2cccs2)n[nH]c1=S,3.27
10,O=C(Nc1ccccc1)C1=C[C@H](c2ccc(C(F)(F)F)cc2)C[C@H](OCCCCO)O1,-12.8
11,CC(C)Cc1nnc(NC(=O)CSc2ncn[nH]2)s1,7.76
12,O=C(CN1CCN(c2ccccc2F)CC1)Nc1nnc(C(F)(F)F)s1,-1.49
13,Cc1ccsc1C(=O)C1CCCN(Cc2ccn[nH]2)C1 (stereo not drawn),6.96
14,O=S(=O)(NC1=NCCC1)c1cccc(NS(=O)(=O)c2ccc(F)c(Cl)c2)c1,-1.14
15,Cc1cccc(NC(=O)Cn2cnc3sc(C)c(S(=O)(=O)N4CCC(C)CC4)c3c2=O)n1,11.8
16,O=C(C1CCC1)N1CCc2cc(S(=O)(=O)NCc3ccco3)ccc21,-2.87
17,COc1ccc2c(c1)CCc1c(C(=O)N3CCc4ccccc4C3)noc1-2,-20.9
18,COC(=O)C1=C(c2ccc(-c3ccccc3)c(F)c2)C[C@@H]2CC[C@H]1N2C(=O)NCCNC(C)=O,7.03
19,COc1ccc(C(C(=O)NCCC(C)C)N(CCO)C(=O)c2snc(C(N)=O)c2N)cc1OC (stereo not drawn),13.8

row,SMILES,"hERG current change (%, negative = inhibition) at 10uM [%]"
1,CC1(C)C(=O)C=C[C@]2(C)[C@H]3CC[C@@]4(C)[C@H](c5ccoc5)OC(=O)[C@H]5O[C@]54[C@]3(C)[C@H](O)C[C@@H]12,8.63
2,O=C(NCC1COc2ccccc2O1)c1cccc(S(=O)(=O)NCc2ccccc2)c1 (stereo not drawn),-24.5
3,Cc1cc(C(=O)Nc2nnc(C3CCCCC3)s2)no1,-8.9
4,CCOc1ccc(NS(=O)(=O)c2ccc(C(=O)NCCN3CCOCC3)cc2)cc1,2.96
5,Cc1ccc(S(=O)(=O)Nc2ccc(N3CCN(C)CC3)nc2)cc1,-6.87
6,Cc1cc(C)n2nc(SCC(=O)N/N=C/c3ccccn3)nc2n1,3.74
7,Cc1cc([N+](=O)[O-])nn1CC(=O)NCCCn1ccnc1,-2.86
8,CCC(C)[C@H](NC(=O)NCc1ccco1)C(=O)O (stereo partly drawn),24.1
9,CCCN1C(=O)C(O)(C2CC(=O)CC(C)(C)O2)c2ccccc21 (stereo not drawn),-10.3
10,O=C(Cn1cc2c(n1)CCCCC2)NCCN1CCOCC1,6.47
11,CCC(=O)Nc1cccc(-c2cnc3ccccc3n2)c1,-14.3
12,Clc1ccc(-c2cc3ccccc3nc2N2CCOCC2)cc1,18.1
13,S=c1[nH]nc(-c2cccnc2)n1/N=C/C=C/c1ccccc1,17
14,CC1CC(C)CN(CCCOc2ccccc2[N+](=O)[O-])C1.O=C(O)C(=O)O (stereo not drawn),-35.5
15,Cc1c(C(=O)NCc2ccc3c(c2)OCO3)oc2ccc(S(=O)(=O)N3CCCC3)cc12,21.3
16,O=C1C2CCCN2C(=O)N1CCN1CCN(c2ccccc2)CC1 (stereo not drawn),-8
17,COc1ccccc1CNC(=O)COC(=O)c1ccc(-n2cnnn2)cc1,-25.3
18,S=C(c1ccc(-c2ccccc2Cl)o1)N1CCOCC1,11.5
19,COC(=O)Cc1ccc(NC(=S)NCc2ccc(F)cc2)cc1,-74.4

row,SMILES,"hERG current change (%, negative = inhibition) at 10uM [%]"
1,C=CCn1c(=N)c(C(=O)NCCCOC)cc2c(=O)n3cccc(C)c3nc21,-73.5
2,CCc1nn(CC(=O)NCCCN2CCc3ccccc3C2)c(=O)c2cc3sccc3n12,-70.2
3,Cc1c(NC(=O)C2CCN(S(=O)(=O)c3cccs3)CC2)c(=O)n(-c2ccccc2)n1C,7.93
4,COCCCN(C(C)=O)c1nc(-c2ccccc2)cs1,-23.4
5,NC(=O)NC(=O)C[n+]1cccc(/C=N/O)c1.[Cl-],5.5
6,Cc1ccc(OCc2nc3ccccc3n2C)cc1,-24.2
7,COc1ccc(OCC(=O)N(Cc2ccco2)C2CCS(=O)(=O)C2)cc1 (stereo not drawn),-18.9
8,CCOC(=O)C1=C(C)NC(C)=C(C(=O)OCC)C1C(=O)OCC(=O)N1CCCCC1C (stereo not drawn),2
9,COCCNC(=O)c1c(N)sc2c1CCCC2,-0.506
10,c1ccc(-n2ncc3c(NCC4CCCO4)ncnc32)cc1 (stereo not drawn),-5.26
11,CC(=O)N1N=C(N)SC1(C)C,8.14
12,CCn1c(SCc2nc3cc(OC)c(OC)cc3c(=O)[nH]2)nnc1-c1ccncc1,-2.93
13,Cc1ccc(C)c(NC(=O)CCN2CC(C)OC(C)C2)c1 (stereo not drawn),1.59
14,COc1cccc(C(=O)O/N=C(\N)c2ccc(C)cc2)c1,-6.05
15,COc1cccc(NC(=O)CN(c2cccc(OC)c2)S(C)(=O)=O)c1,-4.7
16,O=C1c2ccccc2C(=O)N1Cc1nn2c(-c3ccc(Cl)cc3)nnc2s1,0.764
17,Cc1ccc(S(=O)(=O)N[C@@H](CO)C(=O)N[C@@H](Cc2ccc(O)cc2)C(=O)O)cc1 (Tos-Ser-Tyr-OH),15.7
18,O=C1C=C(NC2CC2)C2(CCCCC2)O1,4.24
19,O=C(c1ccc(N2CCCC2)c([N+](=O)[O-])c1)N1CCN(c2ccccn2)CC1,-21.8
